These results are taken from PubChem BioAssay (NCI).

Several values for one entry are separate records, joined by “and”; a condition that tells them apart may be missing. Identical values can stand only once.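 Cells were grown in 96-well plates and exposed to each compound for 48 hours at five concentrations; endpoints were interpolated linearly between bracketing concentrations, or set to the highest concentration if not reached. The concentration for 50% growth inhibition is given as GI50. TGI is the concentration that stops growth completely.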 Peptide text beside a SMILES is read from it.

The assay concerns NCI-H322M lung. Kind of assay: DTP human tumour cell line panel, 48 h.
One may read the TGI as the concentration giving total growth inhibition. High values mean lower sensitivity of the cells, low ones greater sensitivity of the cells. `CC(C)(C)N1CC2(CCCCC2)C1=O` registered a TGI greater than 100 µM.

What is called GI50 is the concentration that inhibits growth by half. In the case of `CN(C)c1ccc2nc3ccc(=O)cc-3sc2c1`, the GI50 was 10.5 µM and the concentration for total growth inhibition (TGI) is 30.2 µM.

Regarding `c1ccc2c3ccn4cc5c(cc4c-3nc2c1)CCCC5`, the GI50 was 2.75 µM and the TGI stood at 11.5 µM.

Compound `CCOC(=O)c1nc2c(Cl)c3ncccc3cc2[nH]c1=O` returned a TGI greater than 100 µM.

`O=C(C(=O)N1CCc2ccccc21)c1c[nH]c2ccccc12` came in with a TGI greater than 10 µM.

`NS(=O)(=O)c1ccc(-n2c(-c3cccs3)nc3ccc(I)cc3c2=O)cc1` came in with a TGI of 57.6 µM.

As to `COc1cc(/C=C2\C[C@H]3[C@@H]4CC=C5C[C@@H](O)CC[C@]5(C)[C@H]4CC[C@]3(C)C2=O)cc(OC)c1OC`, the total growth inhibition concentration (TGI) was greater than 100 µM.

`CC1(C#N)CC(C)(C)C(/C=C2/CC(C)(C)C(/C=C3/OC(=N)CC3(C)C)=N2)=N1` (stereo unspecified) displayed a TGI greater than 100 µM.

`CCN(CC)CCn1nc(N)c2nc3cc(Cl)ccc3nc21` had a TGI greater than 100 µM.

Take `CC(=O)OCC1OC([S-])C(OC(C)=O)C(OC(C)=O)C1OC(C)=O.CC[PH+](CC)CC.CC[PH+](CC)CC.[Au].[Au]` (stereo unspecified): the GI50 was 1.4 µM and the TGI stood at 2.7 µM.

As to `COc1cc(/C=C2\C(=O)Nc3ccc(F)cc32)cc(OC)c1OC`, the GI50 is 92.3 µM and the TGI was greater than 100 µM.

`CC12CCC(C(=O)OC1=O)C2(C)C` (stereo unspecified) had a total growth inhibition concentration (TGI) greater than 100 µM.

`O=C(Nc1cccc(Cl)c1)c1cc2ccccc2cc1O`: the GI50 was 2.83 µM and 2.41 µM; the TGI was greater than 100 µM.

In the case of `Cc1cccc2c1Oc1cc(Cl)ccc1C2NC(=O)CCN1CCOCC1` (stereo unspecified), the TGI was greater than 100 µM.

The compound `N#CC(C#N)=c1[nH]c2cccc3c2-c2c(cccc2c3=C(C#N)C#N)[nH]1` had a concentration for total growth inhibition (TGI) greater than 100 µM.

For `N#CC(C(=O)/C(=N/Nc1nc(=S)[nH]n1N)C(C#N)c1ccccc1)c1ccccc1` (stereo unspecified), the concentration for total growth inhibition (TGI) was greater than 100 µM.

The compound `CN(C)C(=O)OCOC(=O)N(C)C` registered a TGI greater than 100 µM.

Regarding `Cc1cc(NC(=O)c2ccc(C)c(Nc3nccc(-c4cccnc4)n3)c2)cc(-n2cnc(C)c2)c1`, the GI50 was 3.56 µM and the TGI stood at 13.8 µM.

In the case of `CNC(=S)N/N=C(C)\C(=N/NC(=S)NC)c1ccccc1`, the TGI is greater than 100 µM.

For the compound `COc1ccc(CNc2c3ccccc3nc3ccccc23)cc1OC`, the GI50 is 2.08 µM and the total growth inhibition concentration (TGI) worked out at 7.69 µM.

Turning to `O=C(O)Cc1c(O)ccc2ccccc12`, the TGI was greater than 100 µM.

In turn, `O=C(CCC/C(CC(=O)c1ccc(Br)cc1)=N\O)Nc1ccccc1` had a TGI greater than 100 µM.

For the compound `COc1cc2c(cc1OC)C(O)[C@H](Br)C(C)(C)O2` (stereo partly specified), the concentration for total growth inhibition (TGI) was greater than 100 µM.

With `Cc1[nH]n(-c2cccc(Cl)c2)c(=O)c1/C=C1\C=Nc2ccc(Br)cc21`, the GI50 is 7.03 µM and the total growth inhibition concentration (TGI) is greater than 100 µM.

Consider `O=C(Nc1ccc(Cl)cc1F)c1cc(Br)ccc1O`, for which the GI50 was 0.696 µM and the total growth inhibition concentration (TGI) was greater than 31 µM.

`Cc1cccc(NC(=O)/C=C/c2ccc(N(CCC#N)CCC#N)cc2C)c1` displayed a TGI greater than 100 µM.

As to `COC(=O)C1=C(C)NC(C)=C(C(=O)OC)C1c1ccc(/[N+]([O-])=C/c2ccccc2)cc1`, the TGI was greater than 100 µM.

As to `COc1ccccc1NC(=O)C1=C(C)NC(C)=C(C(=O)Nc2ccccc2OC)C1c1ccc([N+](=O)[O-])cc1`, the concentration for total growth inhibition (TGI) is greater than 100 µM.

`COc1ccc2c(c1)CN1C(=N2)CSC1c1cc([N+](=O)[O-])ccc1Cl` (stereo unspecified) yielded a TGI greater than 100 µM.

`CCOC(=O)C(N)CSC(=O)NC` (stereo unspecified) showed a TGI of 620 µM.

In the case of `Nc1nc(Cl)cc(NCCO)n1`, the total growth inhibition concentration (TGI) is greater than 100 µM.

Consider `CC(C)=CCS(=O)c1ccccc1NC1=CC(=O)CC(C)(C)C1` (stereo unspecified), for which the TGI was greater than 100 µM.

As to `CC(=O)Oc1ccccc1C(=O)N=C1[Se]CCCN1C(=O)c1ccccc1OC(C)=O`, the GI50 was 2.3 µM and the total growth inhibition concentration (TGI) is 6.98 µM.

`CC1(C)OCC2OC3(c4nc(C#N)c(N)o4)OC(C)(C)OC3C2O1` (stereo unspecified) registered a TGI greater than 100 µM.

Turning to `Cc1[nH][nH]c(=O)c1C=Nc1ccc(-c2nc3ccccc3[nH]2)cc1`, the GI50 was 0.139 µM and the total growth inhibition concentration (TGI) is 3.09 µM.

On to `CCN(CC)CCOc1ccc(/C(=C(\C)c2ccc(F)c(OC)c2)c2ccc(Cl)cc2)cc1`, for which the GI50 was 2.46 µM and the TGI stood at 4.76 µM.

`O=C1c2cc3c(cc2CC12Cc1cc4c(cc1C2=O)CCC4)CCCC3` (stereo unspecified): the total growth inhibition concentration (TGI) is greater than 100 µM.

Turning to `CC(=O)Oc1ccccc1-c1cc2ccccc2oc1=O`, the TGI is greater than 100 µM.

Take `CCC1c2[nH]c3ccccc3c2C[C@H]2C(=O)NC(COC(C)(C)C)C(=O)N12` (stereo partly specified): the concentration for total growth inhibition (TGI) is greater than 100 µM.

Compound `Clc1ccc(-c2c(C3=NCCN3)nnn2-c2ccc(Cl)cc2)cc1` registered a concentration for total growth inhibition (TGI) greater than 100 µM.

As for `O=C(O)c1ccc(NNc2cc(=O)[nH]c(=O)[nH]2)cc1`, the TGI is greater than 100 µM.

In turn, `C=CCNC1=C2C[C@@H](C)C[C@@H](OC)[C@@H](OC(=O)CCCN)[C@H](C)/C=C(\C)[C@@H](OC(N)=O)[C@H](OC)/C=C\C=C(/C)C(=O)NC(=CC1=O)C2=O` displayed a concentration for total growth inhibition (TGI) of 26.4 µM.

`O=C(NCCCNC(=O)c1ccc2c(O)c(O)ccc2c1)c1ccc2c(O)c(O)ccc2c1` displayed a TGI greater than 100 µM.

Consider `C[C@]12CCC(=O)C=C1CC[C@@H]1C2CC[C@]2(C)c3nn(-c4ccc(F)cc4)nc3CC12` (stereo partly specified), for which the concentration for total growth inhibition (TGI) is greater than 100 µM.

On to `CN1CCc2c(Sc3ccc(C(=O)NO)cc3)c3ccccc3n2C1`, for which the GI50 is 2.5 µM and the TGI was found to be 8.89 µM.

`O=C(CSc1nnc(-c2ccccc2NC(=O)C(F)(F)F)c(=O)[nH]1)NC(=O)Nc1ccccc1` gave a TGI greater than 100 µM.

Regarding `CC(C)(C)C(=O)/C=C/c1ccc(Oc2ccccc2)cc1`, the total growth inhibition concentration (TGI) was found to be 45.9 µM.

`Cc1ccc(C2CC(c3ccco3)=NN2c2ccccc2)o1` (stereo unspecified) registered a concentration for total growth inhibition (TGI) greater than 100 µM.

For `COc1cccc(CCn2c(N)c(-c3ccccc3)c3ccc([N+](=O)[O-])cc3c2=O)c1`, the TGI turned out to be 9.15 µM.

With `COc1c(C)c2c(c(C)c1Cl)Oc1c(C=O)c(O)c(Cl)c(C)c1C(=O)O2`, the TGI was greater than 100 µM.

Compound `N#CC(NNC(=O)Cc1ccccc1)c1ccccc1O` (stereo unspecified) registered a concentration for total growth inhibition (TGI) greater than 100 µM.

`Cc1cc(C)cc(C(=N)c2ccccc2Cc2cccc3ccccc23)c1` gave a concentration for total growth inhibition (TGI) of 37.6 µM.

As to `CC1=C(C(=O)Nc2c(C)cccc2C)C(c2ccccc2Cl)C(C(=O)Nc2c(C)cccc2C)=C(C)N1`, the TGI was greater than 100 µM.

Turning to `CC(=O)Oc1ccc(Nc2c3ccccc3nc3ccccc23)cc1`, the GI50 was 2.04 µM and the TGI stood at 7.1 µM.

`O=C(/C=C/c1c(O)ccc2ccccc12)c1ccc2ccccc2c1` returned a TGI greater than 100 µM.

In turn, `CC1(C)c2ccccc2C(=O)C12CCC(=O)CC2` registered a TGI greater than 100 µM.

Take `CCOC(=O)C1=C(C)N(N)C(=S)NC1c1ccc(C)cc1` (stereo unspecified): the GI50 was 5.58 µM and the concentration for total growth inhibition (TGI) was greater than 100 µM.

As to `COc1cccc(OC)c1/C=C1\OC(=O)c2cccc(OC)c21`, the total growth inhibition concentration (TGI) is greater than 100 µM.

On to `O=C(Nc1cccc(Cl)c1Cl)c1cccc(NC2=C(Cl)C(=O)N(Cc3ccccc3)C2=O)c1`, for which the GI50 is greater than 100 µM and the concentration for total growth inhibition (TGI) is greater than 100 µM.

With `CCC(C)C(NC(=O)C(CCCCN)NC(=O)C(NC(=O)C(CCC(N)=O)NC(=O)C(N)CCCNC(=N)N)C(C)CC)C(=O)NC(Cc1c[nH]c2ccccc12)C(=O)NC(Cc1ccccc1)C(=O)NC(CCC(N)=O)C(=O)NC(CC(N)=O)C(=O)NC(CCCNC(=N)N)C(=O)NC(CCCNC(=N)N)C(=O)NC(CCSC)C(=O)NC(CCCCN)C(=O)NC(Cc1c[nH]c2ccccc12)C(=O)NC(CCCCN)C(=O)NC(CCCCN)C(=O)N1CCCC1C(=O)NC(C)C(=O)NC(CCCCN)C(=O)NC(CCCNC(=N)N)C(=O)NC(CCCCN)C(=O)NC(CC(C)C)C(=O)NC(Cc1ccccc1)C(=O)NCC(=O)O` (stereo unspecified) (H-RQIKIWFQNRRMKWKKPAKRKLFG-OH; configuration not given here), the TGI was greater than 25 µM.

`COC(=O)c1ccc(/C=C2\N=C(C)OC2=O)cc1` gave a TGI greater than 100 µM.

Consider `CCOC(=O)CCc1c(C)c2c(OC(C)=O)cc(OC(C)=O)cc2oc1=O`, for which the TGI was greater than 100 µM.

In turn, `CCCCN1C=CN2c3nc4cc(C)c(C)cc4n3C(C(=O)OC)=C(C(=O)OC)C12` (stereo unspecified) came in with a TGI greater than 100 µM.

As to `COC(=O)[C@@H](NC(=O)[C@@H](OC)[C@@H]1Cc2cc3cc(OC4CC(OC5CC(O)C(O)C(C)O5)C(O)C(C)O4)c(C)c(O)c3c(O)c2C(=O)[C@H]1OC1CC(OC2CC(OC3CC(C)(O)C(O)C(C)O3)C(O)C(C)O2)C(O)C(C)O1)C(C)C` (stereo partly specified), the concentration for 50% growth inhibition (GI50) is 0.146 µM and the concentration for total growth inhibition (TGI) is greater than 32.5 µM.

As for `O=C(O)c1cc(O)c2c(c1)C(C1c3cc(C(=O)O)cc(O)c3C(=O)c3c(OC4OC(CO)C(O)C(O)C4O)cccc31)c1cccc(OC3OC(CO)C(O)C(O)C3O)c1C2=O` (stereo unspecified), the GI50 was greater than 100 µM and the TGI was greater than 100 µM.

`COc1ccc2c(c1)CCc1c-2[nH]c2ccc(OC)cc12` registered a TGI greater than 100 µM.

`C=C1C(=O)O[C@H]2[C@H]1[C@@H](OC(=O)C=C(C)C)CC1=C[C@@H](C[C@@]3(C)O[C@@H]23)OC1=O` showed a TGI of 26.8 µM.

The compound `O=S(O)CCCCSSCc1ccccc1CSSCCCCS(=O)O` registered a TGI greater than 100 µM.

The compound `NC(CCC(=O)NC(CSC(=O)N(O)c1ccc(Br)cc1)C(=O)NCC(=O)O)C(=O)O` (stereo unspecified) gave a TGI greater than 100 µM.

Compound `COc1ccnc2c1C(=O)c1nc3ccccc3c3ccnc-2c13` yielded a total growth inhibition concentration (TGI) of 1.2 µM.

For the compound `COC(CN(C(=O)c1ccccc1)C1CCC2(SCCS2)c2[nH]c3ccccc3c21)OC` (stereo unspecified), the TGI was greater than 100 µM.

Consider `Cc1n(Cc2ccc3ccccc3c2)cc[n+]1Cc1ccc2ccccc2c1`, for which the GI50 was 2.46 µM and the concentration for total growth inhibition (TGI) was 10.4 µM.

The compound `Cc1cn2c(=O)c3ccccc3nc2s1` came in with a total growth inhibition concentration (TGI) greater than 100 µM.

For `O=C(CCC(=O)Nc1cccc(Cl)c1)CC(=O)c1ccc(Cl)cc1`, the total growth inhibition concentration (TGI) is greater than 100 µM.

Turning to `CSC1=C(SC)SC(=C2SC3=C(SC(=C4SCCS4)S3)S2)S1`, the TGI was greater than 100 µM.

Consider `Cc1cccc(/C=N/NC(=S)NCCc2ccccn2)n1`, for which the concentration for total growth inhibition (TGI) was greater than 100 µM.

In the case of `N#CC1(C2SCCS2=O)C2=C(C(=O)c3ccccc3C2=O)N2CCCC21` (stereo unspecified), the TGI was found to be 9.17 µM.

On to `Nc1c(C(=O)N/N=C/c2ccc(-c3ccc(Cl)cc3)o2)cnn1-c1ccnc2c(C(F)(F)F)cccc12`, for which the GI50 is greater than 100 µM and the TGI is greater than 100 µM.

In the case of `CC1=C(C(N)=O)C(c2ccncc2)C(C#N)=C2SCC(=O)N12` (stereo unspecified), the TGI was greater than 100 µM.

Consider `c1cc(-c2ncc(-c3ccc4c(c3)CCCO4)o2)ccn1`, for which the TGI was greater than 100 µM.

Take `Cc1cn(C2CC(ON3C(=O)c4ccccc4C3=O)C(CO)O2)c(=O)[nH]c1=O` (stereo unspecified): the TGI was greater than 10 µM.
